Results taken from patent publication US20240124575A1 (SIMCERE ZAIMING PHARMACEUTICAL, published 2024).
Each block holds one binder with its values, some of them ahead of it.

Columns and labels:
[1] = biological target: T1, human CD33-C2-his (human, UniProt P20138 136-260); assay: ELISA on coated human CD33-C2-his
T1 construct: expressed in HEK293E; also called hCD33-C2-his; human CD33 protein C2-domain; not shown: His tag

[2] = biological target: T2, human CD33-V-his (human, UniProt P20138 18-144); assay: ELISA on coated human CD33-V-his
T2 construct: expressed in HEK293E; also called hCD33-V-his; human CD33 protein V-domain; not shown: His tag

[3] = biological target: T3, murine CD33-His protein (murine, UniProt Q63994 18-240, limits assumed); assay: ELISA on coated murine CD33-his
T3 construct: also called murine CD33 protein
T3 sequence (looked up): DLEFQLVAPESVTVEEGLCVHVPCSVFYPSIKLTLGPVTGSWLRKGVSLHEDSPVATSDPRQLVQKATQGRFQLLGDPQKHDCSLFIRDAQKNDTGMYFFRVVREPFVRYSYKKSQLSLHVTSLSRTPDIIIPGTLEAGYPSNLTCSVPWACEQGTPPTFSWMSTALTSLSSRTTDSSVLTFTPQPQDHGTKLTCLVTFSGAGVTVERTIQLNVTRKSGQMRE

[4] = biological target: T4, human CD33-C2-his protein (human, UniProt P20138 136-260); assay: ELISA on coated human CD33-C2-his
T4 construct: also called hCD33-C2-his; Human CD33 protein C2-domain; not shown: His tag

[5] = biological target: T5, human CD33 on U937 cells (endogenous) (human, UniProt P20138); assay: FACS, U937 cells
T5 construct: whole, on cells

[6] = biological target: T6, human CD33-his protein (human, UniProt P20138 18-259); assay: competition ELISA, coated human CD33-his, vs Biotin-C33B904 at EC80; antibody 7.81 nM
T6 construct: range 18-259; bought protein; also called hCD33-his; recombinant human CD33-his; not shown: His tag

[7] = biological target: T6, human CD33-his protein; assay: competition ELISA, coated human CD33-his, vs Biotin-C33B904 at EC80; antibody 1.95 nM
[8] = biological target: T6, human CD33-his protein; assay: competition ELISA, coated human CD33-his, vs Biotin-C33B904 at EC80; antibody 0.49 nM
[9] = biological target: T6, human CD33-his protein; assay: competition ELISA, coated human CD33-his, vs Biotin-C33B904 at EC80; antibody 250.00 nM
[10] = biological target: T6, human CD33-his protein; assay: competition ELISA, coated human CD33-his, vs Biotin-C33B904 at EC80; antibody 15.63 nM
[11] = biological target: T6, human CD33-his protein; assay: competition ELISA, coated human CD33-his, vs Biotin-C33B904 at EC80; antibody 3.91 nM
[12] = biological target: T6, human CD33-his protein; assay: competition ELISA, coated human CD33-his, vs Biotin-C33B904 at EC80; antibody 62.50 nM
[13] = biological target: T6, human CD33-his protein; assay: competition ELISA, coated human CD33-his, vs Biotin-C33B904 at EC80; antibody 0.98 nM
[14] = biological target: T6, human CD33-his protein; assay: competition ELISA, coated human CD33-his, vs Biotin-C33B904 at EC80; antibody 0 nM (no competitor)
[15] = biological target: T6, human CD33-his protein; assay: competition ELISA, coated human CD33-his, vs Biotin-C33B904 at EC80; antibody 31.25 nM
[16] = biological target: T6, human CD33-his protein; assay: competition ELISA, coated human CD33-his, vs Biotin-C33B904 at EC80; antibody 125.00 nM
[17] = biological target: T6, human CD33-his protein; assay: competition ELISA, coated human CD33-his, vs Biotin-C33B904 at EC80; antibody 500 nM
[18] = biological target: T6, human CD33-his protein; assay: SPR (Biacore), antibody captured on Protein A chip, human CD33-his analyte
[19] = biological target: T6, human CD33-his protein; assay: competition ELISA, coated human CD33-his, vs Biotin-C33B904 at EC80; antibody 125.00 nM; remark: listed apart in the source
[20] = biological target: T6, human CD33-his protein; assay: competition ELISA, coated human CD33-his, vs Biotin-C33B904 at EC80; antibody 1.95 nM; remark: listed apart in the source
[21] = biological target: T6, human CD33-his protein; assay: competition ELISA, coated human CD33-his, vs Biotin-C33B904 at EC80; antibody 7.81 nM; remark: listed apart in the source
[22] = biological target: T6, human CD33-his protein; assay: competition ELISA, coated human CD33-his, vs Biotin-C33B904 at EC80; antibody 0.98 nM; remark: listed apart in the source
[23] = biological target: T6, human CD33-his protein; assay: competition ELISA, coated human CD33-his, vs Biotin-C33B904 at EC80; antibody 3.91 nM; remark: listed apart in the source
[24] = biological target: T6, human CD33-his protein; assay: competition ELISA, coated human CD33-his, vs Biotin-C33B904 at EC80; antibody 0.49 nM; remark: listed apart in the source
[25] = biological target: T6, human CD33-his protein; assay: competition ELISA, coated human CD33-his, vs Biotin-C33B904 at EC80; antibody 31.25 nM; remark: listed apart in the source
[26] = biological target: T6, human CD33-his protein; assay: competition ELISA, coated human CD33-his, vs Biotin-C33B904 at EC80; antibody 0 nM (no competitor); remark: listed apart in the source
[27] = biological target: T6, human CD33-his protein; assay: competition ELISA, coated human CD33-his, vs Biotin-C33B904 at EC80; antibody 250.00 nM; remark: listed apart in the source
[28] = biological target: T6, human CD33-his protein; assay: competition ELISA, coated human CD33-his, vs Biotin-C33B904 at EC80; antibody 500 nM; remark: listed apart in the source
[29] = biological target: T6, human CD33-his protein; assay: competition ELISA, coated human CD33-his, vs Biotin-C33B904 at EC80; antibody 62.50 nM; remark: listed apart in the source
[30] = biological target: T6, human CD33-his protein; assay: competition ELISA, coated human CD33-his, vs Biotin-C33B904 at EC80; antibody 15.63 nM; remark: listed apart in the source

Chain of human CD33-C2-his (P20138 other isoform, or with tags, fused parts or gaps limits assumed): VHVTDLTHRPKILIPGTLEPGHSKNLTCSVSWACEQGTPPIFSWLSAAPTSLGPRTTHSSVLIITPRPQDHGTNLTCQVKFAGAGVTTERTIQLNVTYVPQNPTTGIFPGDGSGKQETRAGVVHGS
T6 sequence (P20138 18-259 limits assumed): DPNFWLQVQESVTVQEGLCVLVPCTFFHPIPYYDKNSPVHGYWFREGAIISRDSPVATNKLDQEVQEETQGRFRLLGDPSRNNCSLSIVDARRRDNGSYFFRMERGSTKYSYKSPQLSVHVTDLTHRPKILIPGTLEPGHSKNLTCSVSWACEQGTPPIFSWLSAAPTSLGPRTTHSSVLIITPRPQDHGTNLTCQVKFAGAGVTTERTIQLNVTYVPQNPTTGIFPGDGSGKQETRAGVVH
Chain of human CD33-V-his (P20138 other isoform, or with tags, fused parts or gaps limits assumed): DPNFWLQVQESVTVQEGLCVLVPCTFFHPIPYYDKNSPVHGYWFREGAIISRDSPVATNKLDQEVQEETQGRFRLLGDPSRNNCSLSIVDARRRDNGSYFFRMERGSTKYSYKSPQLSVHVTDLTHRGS

EC50 (read off the curve) [1]: ~3 nM | binding result [2]: no binding (tested: 100 nM) | binding result [3]: no binding (tested: 100 nM)
B1: S006-NB146-173-H5 (Fc fusion)
chain: EVQLVESGGGLVQPGGSLRLSCAASGSTLSLHSMGWYRQAPGKQRELVAGISRDGDSNYLSSLAGRFTISRDGTKNSLYLQMNSLRAEDTAVYYCNARTSPWSAALWGQGTMVTVSS[letters of human IgG1 Fc with changes left out]
notes: also called humanized VHH-Fc

binding result [4]: binds
B2: S006-NB146-173-H4 (Fc fusion)
chain: EVQLVESGGGLVQPGGSLRLSCAASGSTLSLHSMGWYRQAPGKQRELVAGISRDGDSNYLSSLAGRFTISRDNAKNSLYLQMNSLRAEDTAVYYCNARTSPWSAALWGQGTMVTVSS[letters of human IgG1 Fc with changes left out]

binding result [1]: binds | binding result [2]: no binding (tested: 100 nM) | binding result [3]: no binding (tested: 100 nM) | binding result [5]: binds
B3: S006-NB146-173-H4 (Fc fusion)
chain: EVQLVESGGGLVQPGGSLRLSCAASGSTLSLHSMGWYRQAPGKQRELVAGISRDGDSNYLSSLAGRFTISRDNAKNSLYLQMNSLRAEDTAVYYCNARTSPWSAALWGQGTMVTVSS[letters of human IgG1 Fc with changes left out]
notes: also called humanized VHH-Fc

binding result [4]: binds
B4: S006-NB146-173-H3 (Fc fusion)
chain: EVQLVESGGGLVQPGGSLRLSCAASGSTFSLHSMGWYRQAPGKQRELVAGISRDGDSNYLSSLAGRFTISRDNAKNSLYLQMNSLRAEDTAVYYCNARTSPWSAALWGQGTMVTVSS[letters of human IgG1 Fc with changes left out]

binding result [1]: binds | binding result [2]: no binding (tested: 100 nM) | binding result [3]: no binding (tested: 100 nM) | binding result [5]: binds
B5: S006-NB146-173-H3 (Fc fusion)
chain: EVQLVESGGGLVQPGGSLRLSCAASGSTFSLHSMGWYRQAPGKQRELVAGISRDGDSNYLSSLAGRFTISRDNAKNSLYLQMNSLRAEDTAVYYCNARTSPWSAALWGQGTMVTVSS[letters of human IgG1 Fc with changes left out]
notes: also called humanized VHH-Fc

binding result [4]: binds
B6: S006-NB146-173-H2 (Fc fusion)
chain: EVQLVESGGGLVQPGGSLRLSCAASGFTFSLHSMGWYRQAPGKQRELVAGISRDGDSNYLSSLAGRFTISRDNAKNSLYLQMNSLRAEDTAVYYCNARTSPWSAALWGQGTMVTVSS[letters of human IgG1 Fc with changes left out]

EC50 (read off the curve) [1]: ~0.4 nM | binding result [2]: no binding (tested: 100 nM) | binding result [3]: no binding (tested: 100 nM)
B7: S006-NB146-173-H6 (Fc fusion)
chain: EVQLVESGGGLVQPGGSLRLSCAASGSTLSLHSMGWYRQAPGKQRELVAGISRDGDSNYLSSLAGRFTISRDGTKNSVYLQMNSLRAEDTAVYYCNARTSPWSAALWGQGTMVTVSS[letters of human IgG1 Fc with changes left out]
notes: also called humanized VHH-Fc

OD450 (Biotin-C33B904 signal) [6]: 2.38 | OD450 (Biotin-C33B904 signal) [7]: 2.47 | OD450 (Biotin-C33B904 signal) [8]: 2.42 | OD450 (Biotin-C33B904 signal) [9]: 0.76 | OD450 (Biotin-C33B904 signal) [10]: 2.1 | OD450 (Biotin-C33B904 signal) [11]: 2.47 | OD450 (Biotin-C33B904 signal) [12]: 1.52 | OD450 (Biotin-C33B904 signal) [13]: 2.36 | OD450 (Biotin-C33B904 signal) [14]: 2.5 | OD450 (Biotin-C33B904 signal) [15]: 1.88 | OD450 (Biotin-C33B904 signal) [16]: 1.14 | OD450 (Biotin-C33B904 signal) [17]: 0.5 | Kd [18]: 9.68 nM | koff [18]: 0.00179 s⁻¹ | kon [18]: 185000 M⁻¹ s⁻¹
B8: S006-NB146-173 (Fc fusion)
chain: QVQLVESGGGLVQAGGSLRLSCAASGSTLSLHSMGWYRQAAGRQRELVAGISRDGDSNYLSSLAGRFFISRDGTKNTVYLQMTSLKPEDTAVYYCNARTSPWSAALWGQGTQVTVSS[letters of human IgG1 Fc with changes left out]
notes: tested as VHH-Fc (VHH with human IgG1 hinge and Fc)

OD450 (Biotin-C33B904 signal) [19]: 2.24 | OD450 (Biotin-C33B904 signal) [6]: 2.13 | OD450 (Biotin-C33B904 signal) [7]: 2.1 | OD450 (Biotin-C33B904 signal) [8]: 2.19 | OD450 (Biotin-C33B904 signal) [20]: 2.23 | OD450 (Biotin-C33B904 signal) [21]: 2.25 | OD450 (Biotin-C33B904 signal) [9]: 2.07 | OD450 (Biotin-C33B904 signal) [10]: 2.08 | OD450 (Biotin-C33B904 signal) [22]: 2.23 | OD450 (Biotin-C33B904 signal) [11]: 2.2 | OD450 (Biotin-C33B904 signal) [23]: 2.22 | OD450 (Biotin-C33B904 signal) [12]: 2.06 | OD450 (Biotin-C33B904 signal) [24]: 2.23 | OD450 (Biotin-C33B904 signal) [25]: 2.27 | OD450 (Biotin-C33B904 signal) [26]: 2.3 | OD450 (Biotin-C33B904 signal) [13]: 2.02 | OD450 (Biotin-C33B904 signal) [14]: 2.27 | OD450 (Biotin-C33B904 signal) [15]: 2.05 | OD450 (Biotin-C33B904 signal) [16]: 2.09 | OD450 (Biotin-C33B904 signal) [27]: 2.31 | OD450 (Biotin-C33B904 signal) [28]: 2.39 | OD450 (Biotin-C33B904 signal) [17]: 2.1 | OD450 (Biotin-C33B904 signal) [29]: 2.3 | OD450 (Biotin-C33B904 signal) [30]: 2.35 | Kd [18]: 7.93 nM | koff [18]: 0.00557 s⁻¹ | kon [18]: 702000 M⁻¹ s⁻¹
B9: SGN-33 scFv-hIgG1Fc (Fc fusion)
scFv: QVQLVQSGAEVKKPGASVKVSCKASGYTFTNYDINWVRQAPGQGLEWIGWIYPGDGSTKYNEKFKAKATLTADTSTSTAYMELRSLRSDDTAVYYCASGYEDAMDYWGQGTTVTVSSGGGGSGGGGSGGGGSDIQMTQSPSSLSASVGDRVTINCKASQDINSYLSWFQQKPGKAPKTLIYRANRLVDGVPSRFSGSGSGQDYTLTISSLQPEDFATYYCLQYDEFPLTFGGGTKVEIK[letters of human IgG1 Fc with changes left out]
notes: control antibody as scFv-hFc; variable regions from U.S. Pat. No. 9,453,046

OD450 (Biotin-C33B904 signal) [6]: 2.14 | OD450 (Biotin-C33B904 signal) [7]: 2.27 | OD450 (Biotin-C33B904 signal) [8]: 2.3 | OD450 (Biotin-C33B904 signal) [9]: 0.69 | OD450 (Biotin-C33B904 signal) [10]: 1.96 | OD450 (Biotin-C33B904 signal) [11]: 2.33 | OD450 (Biotin-C33B904 signal) [12]: 1.29 | OD450 (Biotin-C33B904 signal) [13]: 2.29 | OD450 (Biotin-C33B904 signal) [14]: 2.37 | OD450 (Biotin-C33B904 signal) [15]: 1.67 | OD450 (Biotin-C33B904 signal) [16]: 1.07 | OD450 (Biotin-C33B904 signal) [17]: 0.46
B10: S006-NB147-220 (Fc fusion)
chain: QLQLVESGGGMVQPGGSLRLSCAASGFTLDYYAIGWFRQAPGKEREGVSCINSGDSSTYYADSVKGRFTISRDNAENTVYLQMNSLKPEDTAVYYCATVDTLIVAGNLEECRYDMDYWGKGTLVTVSS[letters of human IgG1 Fc with changes left out]
notes: as for B8
